The record followed here is the supplement of paper PMC10369915.

This is one part of the list. No stated cut-off is given here; in the data, active = 3.2 or more and inactive = the rest. Most of these values are background signal.
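Further: displayed peptides selected on beads carrying the immobilized SH2 domain, with library peptides lacking any tyrosine serving as negative controls.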

The target in the first experiment is SHP2 C-SH2 domain E139D. Description: enrichment score (SH2-bound / input frequency) (ratio); bacterial display of known human phosphotyrosine sites (pTyr-Var adds point mutants) read by sequencing; higher = stronger binding; tyrosines were phosphorylated by kinases first. The conditions noted are these: peptide library: Human pTyr.
For ANVMMGPYRQDLLAK [VINC_HUMAN_537], the enrichment score is inactive: 0.553.
Still for that read-out and setting: the result for FGLSKKIYNGDYYRQ [UFO_HUMAN_698] reads inactive: 1.33.
Still for that read-out and setting: then KTASSLSYDIHYWIG [VIL1_HUMAN_60], with inactive: 1.59; and GGGGMAKYGEHEASP [UTRO_HUMAN_4], with inactive: 2.11.
Still for that read-out and setting: then ASSPGGVYATRSSAV [VIME_HUMAN_61], with inactive: 0.632.
Turning to DTEETEDYRQFRKSV [BCLAF1_HUMAN_408], the enrichment score is inactive: 1.09.
Consider DYNSVVLYSTPPIGG [VGFR1_HUMAN_1333], for which the enrichment score was inactive: 0.772.
Turning to DDTDTTVYSSEEAEL [VGFR2_HUMAN_1319], the enrichment score was inactive: 1.06.
Still for that read-out and setting: then ADIDEGLYSRQLAVL [UBA1_HUMAN_55_YA], with inactive: 0.717; and EDQEALDYFSDKESG [BCLF1_HUMAN_383], with inactive: 1.5.
The same measure, in the same setting: the result for TKYKVCNYGLTFTQK [VDAC3_HUMAN_67] reads inactive: 1.11; that for EGKRRFTYDHAELER [VGFR1_HUMAN_1309], inactive: 0.746.
Still for that read-out and setting: the result for EQCEALSYDASQWEF [VGFR3_HUMAN_833_YA] reads inactive: 1.33; that for EGGWMEDYDYVHLQG [BCAR1_HUMAN_664], inactive: 0.724; that for TKYRWTEYGLTFTEK [VDAC1_HUMAN_67], inactive: 1.39.
For KSFLDSGYRILGAVA [VINC_HUMAN_822], the enrichment score was inactive: 1.11.
Still for that read-out and setting: the result for TNQTPPTYNKTNKFT [VPP1_HUMAN_364] reads inactive: 1.32; that for CCSPPPDYNSVVLAS [VGFR1_HUMAN_1327_YA], inactive: 0.705.

The next experiment addresses SHP2 C-SH2 domain wild-type. Described as above. The conditions noted are these: peptide library: Human pTyr.
Consider ANVMMGPYRQDLLAK [VINC_HUMAN_537], for which the enrichment score was inactive: 0.529.
On the same count and under the same terms, then FGLSKKIYNGDYYRQ [UFO_HUMAN_698], with inactive: 1.24.
Consider KTASSLSYDIHYWIG [VIL1_HUMAN_60], for which the enrichment score was inactive: 1.69.
On the same count and under the same terms, then GGGGMAKYGEHEASP [UTRO_HUMAN_4], with inactive: 0.684; and ASSPGGVYATRSSAV [VIME_HUMAN_61], with inactive: 0.656; and DTEETEDYRQFRKSV [BCLAF1_HUMAN_408], with inactive: 0.785.
The same measure, in the same setting: the result for DYNSVVLYSTPPIGG [VGFR1_HUMAN_1333] reads inactive: 0.734.
The same measure, in the same setting: then DDTDTTVYSSEEAEL [VGFR2_HUMAN_1319], with inactive: 1.1; and ADIDEGLYSRQLAVL [UBA1_HUMAN_55_YA], with inactive: 0.58.
Regarding EDQEALDYFSDKESG [BCLF1_HUMAN_383], the enrichment score is inactive: 1.13.
Consider TKYKVCNYGLTFTQK [VDAC3_HUMAN_67], for which the enrichment score is inactive: 1.26.
Still for that read-out and setting: then EGKRRFTYDHAELER [VGFR1_HUMAN_1309], with inactive: 0.805.
Same read-out and setting: the result for EQCEALSYDASQWEF [VGFR3_HUMAN_833_YA] reads inactive: 1.18; that for EGGWMEDYDYVHLQG [BCAR1_HUMAN_664], inactive: 0.635.
Same read-out and setting: the result for TKYRWTEYGLTFTEK [VDAC1_HUMAN_67] reads inactive: 1.35.
As for KSFLDSGYRILGAVA [VINC_HUMAN_822], the enrichment score was inactive: 1.01.
On the same count and under the same terms, then TNQTPPTYNKTNKFT [VPP1_HUMAN_364], with inactive: 0.927; and CCSPPPDYNSVVLAS [VGFR1_HUMAN_1327_YA], with inactive: 0.67.

A further experiment deals with SHP2 N-SH2 domain L43F. Described as above. The conditions noted are these: peptide library: Human pTyr.
On to ANVMMGPYRQDLLAK [VINC_HUMAN_537], for which the enrichment score was inactive: 0.612.
FGLSKKIYNGDYYRQ [UFO_HUMAN_698]: the enrichment score is inactive: 1.48.
On to KTASSLSYDIHYWIG [VIL1_HUMAN_60], for which the enrichment score was inactive: 1.68.
The same measure, in the same setting: then GGGGMAKYGEHEASP [UTRO_HUMAN_4], with inactive: 0.548.
Same read-out and setting: the result for ASSPGGVYATRSSAV [VIME_HUMAN_61] reads inactive: 0.622; that for DTEETEDYRQFRKSV [BCLAF1_HUMAN_408], inactive: 0.806.
Still for that read-out and setting: the result for DYNSVVLYSTPPIGG [VGFR1_HUMAN_1333] reads inactive: 0.871; that for DDTDTTVYSSEEAEL [VGFR2_HUMAN_1319], inactive: 1.06; that for ADIDEGLYSRQLAVL [UBA1_HUMAN_55_YA], inactive: 0.762.
On to EDQEALDYFSDKESG [BCLF1_HUMAN_383], for which the enrichment score was inactive: 1.06.
On the same count and under the same terms, the result for TKYKVCNYGLTFTQK [VDAC3_HUMAN_67] reads inactive: 1.23.
Same read-out and setting: the result for EGKRRFTYDHAELER [VGFR1_HUMAN_1309] reads inactive: 0.784; that for EQCEALSYDASQWEF [VGFR3_HUMAN_833_YA], inactive: 1.26.
The same measure, in the same setting: the result for EGGWMEDYDYVHLQG [BCAR1_HUMAN_664] reads inactive: 0.728; that for TKYRWTEYGLTFTEK [VDAC1_HUMAN_67], inactive: 1.19.
Take KSFLDSGYRILGAVA [VINC_HUMAN_822]: the enrichment score was inactive: 1.04.
The same measure, in the same setting: the result for TNQTPPTYNKTNKFT [VPP1_HUMAN_364] reads inactive: 1.06.
As for CCSPPPDYNSVVLAS [VGFR1_HUMAN_1327_YA], the enrichment score was inactive: 0.616.

The target of a further experiment is SHP2 N-SH2 domain T42A. The experiment is described as above. The conditions noted are these: peptide library: Human pTyr.
In the case of ANVMMGPYRQDLLAK [VINC_HUMAN_537], the enrichment score is inactive: 0.618.
Turning to FGLSKKIYNGDYYRQ [UFO_HUMAN_698], the enrichment score is inactive: 1.09.
The same measure, in the same setting: then KTASSLSYDIHYWIG [VIL1_HUMAN_60], with inactive: 1.53; and GGGGMAKYGEHEASP [UTRO_HUMAN_4], with inactive: 0.652; and ASSPGGVYATRSSAV [VIME_HUMAN_61], with inactive: 0.581.
The same measure, in the same setting: the result for DTEETEDYRQFRKSV [BCLAF1_HUMAN_408] reads inactive: 0.864; that for DYNSVVLYSTPPIGG [VGFR1_HUMAN_1333], inactive: 0.741; that for DDTDTTVYSSEEAEL [VGFR2_HUMAN_1319], inactive: 1.06.
Same read-out and setting: then ADIDEGLYSRQLAVL [UBA1_HUMAN_55_YA], with inactive: 0.562; and EDQEALDYFSDKESG [BCLF1_HUMAN_383], with inactive: 1.22.
Take TKYKVCNYGLTFTQK [VDAC3_HUMAN_67]: the enrichment score is inactive: 1.57.
On the same count and under the same terms, the result for EGKRRFTYDHAELER [VGFR1_HUMAN_1309] reads inactive: 0.863; that for EQCEALSYDASQWEF [VGFR3_HUMAN_833_YA], inactive: 1.16; that for EGGWMEDYDYVHLQG [BCAR1_HUMAN_664], inactive: 0.694.
Turning to TKYRWTEYGLTFTEK [VDAC1_HUMAN_67], the enrichment score is inactive: 1.53.
Regarding KSFLDSGYRILGAVA [VINC_HUMAN_822], the enrichment score was inactive: 1.1.
Same read-out and setting: the result for TNQTPPTYNKTNKFT [VPP1_HUMAN_364] reads inactive: 0.78; that for CCSPPPDYNSVVLAS [VGFR1_HUMAN_1327_YA], inactive: 0.625.

The target of a further experiment is SHP2 N-SH2 domain T52S. Described as above. The conditions noted are these: peptide library: Human pTyr.
On to ANVMMGPYRQDLLAK [VINC_HUMAN_537], for which the enrichment score was inactive: 0.657.
The same measure, in the same setting: then FGLSKKIYNGDYYRQ [UFO_HUMAN_698], with inactive: 1.35; and KTASSLSYDIHYWIG [VIL1_HUMAN_60], with inactive: 1.63.
On the same count and under the same terms, the result for GGGGMAKYGEHEASP [UTRO_HUMAN_4] reads inactive: 0.727.
Still for that read-out and setting: the result for ASSPGGVYATRSSAV [VIME_HUMAN_61] reads inactive: 0.568; that for DTEETEDYRQFRKSV [BCLAF1_HUMAN_408], inactive: 0.973; that for DYNSVVLYSTPPIGG [VGFR1_HUMAN_1333], inactive: 0.743.
As to DDTDTTVYSSEEAEL [VGFR2_HUMAN_1319], the enrichment score was inactive: 1.07.
Same read-out and setting: the result for ADIDEGLYSRQLAVL [UBA1_HUMAN_55_YA] reads inactive: 0.708; that for EDQEALDYFSDKESG [BCLF1_HUMAN_383], inactive: 1.51.
Consider TKYKVCNYGLTFTQK [VDAC3_HUMAN_67], for which the enrichment score is inactive: 1.51.
Still for that read-out and setting: then EGKRRFTYDHAELER [VGFR1_HUMAN_1309], with inactive: 0.882; and EQCEALSYDASQWEF [VGFR3_HUMAN_833_YA], with inactive: 1.39; and EGGWMEDYDYVHLQG [BCAR1_HUMAN_664], with inactive: 0.662.
In the case of TKYRWTEYGLTFTEK [VDAC1_HUMAN_67], the enrichment score was inactive: 1.2.
Same read-out and setting: the result for KSFLDSGYRILGAVA [VINC_HUMAN_822] reads inactive: 2.88.
Still for that read-out and setting: the result for TNQTPPTYNKTNKFT [VPP1_HUMAN_364] reads inactive: 1.07; that for CCSPPPDYNSVVLAS [VGFR1_HUMAN_1327_YA], inactive: 0.852.

The target in the next experiment is SHP2 N-SH2 domain wild-type. The experiment is described as above. The conditions noted are these: peptide library: Human pTyr.
As for ANVMMGPYRQDLLAK [VINC_HUMAN_537], the enrichment score is inactive: 0.822.
Still for that read-out and setting: then FGLSKKIYNGDYYRQ [UFO_HUMAN_698], with inactive: 1.39.
The same measure, in the same setting: then KTASSLSYDIHYWIG [VIL1_HUMAN_60], with inactive: 2.19; and GGGGMAKYGEHEASP [UTRO_HUMAN_4], with inactive: 0.691.
Still for that read-out and setting: the result for ASSPGGVYATRSSAV [VIME_HUMAN_61] reads inactive: 0.584; that for DTEETEDYRQFRKSV [BCLAF1_HUMAN_408], inactive: 0.828.
With DYNSVVLYSTPPIGG [VGFR1_HUMAN_1333], the enrichment score is inactive: 0.844.
The same measure, in the same setting: the result for DDTDTTVYSSEEAEL [VGFR2_HUMAN_1319] reads inactive: 1.21; that for ADIDEGLYSRQLAVL [UBA1_HUMAN_55_YA], inactive: 0.742.
The same measure, in the same setting: then EDQEALDYFSDKESG [BCLF1_HUMAN_383], with inactive: 1.29.
On the same count and under the same terms, the result for TKYKVCNYGLTFTQK [VDAC3_HUMAN_67] reads inactive: 1.35; that for EGKRRFTYDHAELER [VGFR1_HUMAN_1309], inactive: 0.855.
EQCEALSYDASQWEF [VGFR3_HUMAN_833_YA]: the enrichment score is inactive: 1.58.
On the same count and under the same terms, the result for EGGWMEDYDYVHLQG [BCAR1_HUMAN_664] reads inactive: 0.771; that for TKYRWTEYGLTFTEK [VDAC1_HUMAN_67], inactive: 1.97; that for KSFLDSGYRILGAVA [VINC_HUMAN_822], inactive: 1.22.
The same measure, in the same setting: the result for TNQTPPTYNKTNKFT [VPP1_HUMAN_364] reads inactive: 0.98; that for CCSPPPDYNSVVLAS [VGFR1_HUMAN_1327_YA], inactive: 0.809.
